# Reference: PubChem BioAssay AID686978 (National Center for Advancing Translational Sciences (NCATS), 2013)
# Out of some 420,000 compounds screened, about 64,000 (15%) were called active. Inconclusive results, whose numbers are uncertain, are shown with a selection of clear calls. Calls come from the whole dose curve; as a rule, active = well fitted inhibition curve with a large enough effect; inconclusive = small, poorly fitted or top-dose-only effect; inactive = flat fitted curve, though single readings scatter. No potency is given beside an inconclusive call; the fits are too rough.
# Assay: qHTS for Inhibitors of human tyrosyl-DNA phosphodiesterase 1 (TDP1): qHTS in cells in absence of CPT; note: nearly all actives have a fitted effect of over 55% in size
# Conditions: DT40 Tdp1-/- hTDP1 cells, no CPT, ATP luminescence, 48 h; activity change, negative = growth inhibition: at 46.2 µM (top of the series) unless noted
# Summary of the method: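 Growth kinetics read by CellTiter-Glo luminescence after ≥48 hr at 37 °C. Cells: DT40 Tdp1-/- stably carrying human TDP1, 400 per well, compound exposure in the absence of CPT (DMSO vehicle).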
# % is set by controls: 0 for no effect and ±100 for the full control effect; potency is the fitted concentration of half-maximal effect; tags give direction and shape of the fitted curve.
Structure (SMILES),Potency,"activity change, negative = growth inhibition"
Clc1ccc(-c2cc(-c3nnc4n3CCCCC4)c3ccccc3n2)cc1,"inconclusive [inhibitor, single point]",
O=C(C(Cl)Cl)N1CCN(c2ccccn2)CC1,,inactive: -8.55%
CN(C)c1ccc(/C=C2\C(Cl)=Cc3ccccc32)cc1,"inconclusive [inhibitor, single point]",
CCOC(=O)c1ccc(NC(=O)C2CC3CCC2C3)cc1 (stereo not given),"inconclusive [inhibitor, single point]",
OCCNc1nc(-c2ccccc2)nc2c1oc1ccccc12,"inconclusive [inhibitor, single point]",
C[C@@]12C(=O)Nc3ccc(Br)cc3C(=O)N1[C@H]1c3cc(Cl)ccc3OC[C@@H]1[C@@H]2c1ccccc1,active: 18.4 µM,
Cc1cc(C)c2c(CN3CCC(C)CC3)cc(=O)oc2c1C,,inactive: -6.5%
COc1ccc(-c2nc(Cn3c(SCc4ccc(C)cc4)nc4cccnc43)c(C)o2)cc1OC,"inconclusive [inhibitor, full curve, poor fit]",
Cc1sc2nc3n(c(=O)c2c1C)CCCCC3,"inconclusive [inhibitor, single point]",
CCOc1ccc(-n2c(C)nc3cc(C(=O)NCCC4=CCCCC4)ccc32)cc1,active: 16.4 µM,
Cn1nc(C(=O)N2CCN(S(=O)(=O)c3ccc(Cl)cc3)CC2)c2ccccc2c1=O,active: 23.1 µM,
CCn1cc(C(=O)NCc2cccnc2)c(=O)c2cc(F)c(N3CCN(C(=O)c4ccco4)CC3)cc21,active: 20.6 µM,
CCCC1OC2C[C@@H]3[C@H]4CCC5=CC(=O)C=C[C@]5(C)[C@H]4C(O)C[C@]3(C)[C@]2(C(=O)CO)O1 (stereo not given in full),"inconclusive [inhibitor, single point]",
O=C(Nc1nnc(CCS(=O)(=O)c2ccc(Br)cc2)s1)c1ccc([N+](=O)[O-])cc1,,inactive: -8.13%
Cc1ccc(NC(=O)CCC(=O)NNC(=O)C(c2ccccc2)c2ccccc2)c(C)c1,,inactive: -6.83%
COC(=O)c1cc(CNC(=O)c2ccncc2)cc(NC(=O)c2ccccc2Cl)c1,,inactive: -10.4%
CCN1CCN(c2ccc(NS(=O)(=O)c3c(C)nc4sccn4c3=O)cc2Cl)CC1,"inconclusive [inhibitor, partial curve, poor fit]",
COc1ccc(OC)c(CN2CCCC(C(=O)N3CCCCC3)C2)c1 (stereo not given),,inactive: -28.2%
CC(C)C(=O)Nc1ncc2c(n1)CC(c1cccs1)CC2=O (stereo not given),,inactive: -10.5%
CC(Oc1ccc2c(c1)oc(=O)c1ccccc12)C(=O)NC(Cc1c[nH]c2ccc(O)cc12)C(=O)O (stereo not given),,inactive: -7.53%
O=C(NCc1ccccc1)C1c2ccccc2Oc2ccccc21,"inconclusive [inhibitor, single point]",
Cc1ccc(C)c(S(=O)(=O)N2CCCC2CNC(=O)C(=O)Nc2ccccc2)c1 (stereo not given),"inconclusive [inhibitor, single point]",
CCOC(=O)/C(C(=O)Nc1ccc(Br)cc1)=C1/NC(C)(C)Cc2ccccc21,"inconclusive [inhibitor, single point]",

Structure (SMILES),Potency,"activity change, negative = growth inhibition"
CSCCC(c1nc2ccccc2[nH]1)n1c(-c2ccc(C)cc2)nc2ccccc21 (stereo not given),"inconclusive [inhibitor, single point]",
CCOc1cc(C)c(S(=O)(=O)Nc2ccc(F)cc2)cc1C,active: 15.8 µM,
CCOc1ccc(N2C(=O)CC(NC3CCN(C(=O)c4ccc(F)cc4)CC3)C2=O)cc1 (stereo not given),"inconclusive [inhibitor, single point]",
COc1cccc(C(=O)OCC(=O)NCCCc2ccccc2)c1,,inactive: 14.8%
O=C(CCCCCn1c(SCc2ccncc2)nc2ccccc2c1=O)NCc1ccco1,"inconclusive [inhibitor, single point]",
CC(=O)Oc1ccc(/C=N\NC(=O)c2cc3c(ccc4ccccc43)o2)cc1,"inconclusive [inhibitor, single point]",
CN(C(=O)c1ccccc1)c1ccccc1C(=O)NCCc1ccccc1,"inconclusive [inhibitor, partial curve]",
O=C(Nc1ccc2c(c1)Cc1cc([N+](=O)[O-])ccc1-2)C(F)(F)F,active: 6.51 µM,
CCOC(=O)c1ccc(NC(=O)C2=C(C)Nc3nc(SCc4ccc(Cl)cc4)nn3C2c2ccc(OC)cc2)cc1 (stereo not given),"inconclusive [inhibitor, partial curve]",
COc1cccc(OC)c1C(=O)Nc1ccc(Br)c(C(=O)c2ccccc2)c1,active: 16.4 µM,
CC1CCN(C(=O)Cn2c(=O)oc3cc(S(=O)(=O)N4CCCCC4)ccc32)CC1,inactive,
COc1ccc(S(=O)(=O)NCC(c2ccco2)N2CCc3ccccc3C2)cc1 (stereo not given),"inconclusive [inhibitor, partial curve, poor fit]",
Cc1ccc(CNC(=O)c2ccc(Cn3c(SCc4ccccc4F)nc4cccnc43)cc2)cc1,"inconclusive [inhibitor, single point]",
CC1CC(CCC(=O)NC(=S)Nc2ccc(Cl)cn2)C(=O)O1 (stereo not given),,inactive: -8.01%
CN(C)S(=O)(=O)c1ccc(C(=O)N2CC(=O)Nc3ccc(Br)cc3C2c2ccc(F)cc2)cc1 (stereo not given),"inconclusive [inhibitor, single point]",
CN(CC(=O)Nc1ccc(S(=O)(=O)N2CCCC2)cc1)Cc1ccc(Cl)c(Cl)c1,active: 18.4 µM,
COc1ccc(CCC(=O)NNC(=O)Nc2ccc(C(C)C)cc2)cc1,,inactive: 12%
COc1cc2c(=O)[nH]c3cc([N+](=O)[O-])ccc3c2cc1[N+](=O)[O-],active: 6.51 µM,
CCCC1=Nc2cc(C(=O)N3CCC(C(N)=O)CC3)ccc2Sc2ccccc21,,inactive: -11.4%
CCCN(CC1CC1)C(=O)CSc1ncnc2sc(C)c(C)c12,"inconclusive [inhibitor, single point]",
CN(Cc1ccccc1)C(=O)c1ccc2sc([C@@H]3O[C@H](CO)[C@H](O)[C@H](O)[C@H]3O)nc2c1,,inactive: 3.24%
CCOC(=O)c1cc2c(=O)n3ccccc3nc2n(CCCOC)c1=NC(=O)C(C)Oc1ccccc1 (stereo not given),,inactive: -24.7%
